Source: the supplement of paper PMC6089552
The whole screen tested about 3,200 compounds, of which about 300 (9.4%) showed activity. The list shows a part of the results, in another mix than the full data.

Tested on: A673/TR/shEF
Assay: cell viability (LOESS-normalised, relative to median of negative controls) (log2 ratio); higher = more viable cells (less compound effect), active = hit call of the paper (over 3 MAD below the median)
Conditions: treatment time: 72 h
Method in brief: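 A673/TR/shEF Ewing sarcoma cells (1,500 per well, 384-well plates) were grown with or without doxycycline to induce EWS-FLI1 shRNA knockdown, starting 24 h before compounds. Library compounds at two or more concentrations, with DMSO controls, were added for three days. Cell viability was read by CellTiter-Glo luminescence on an Envision reader, then LOESS-corrected per plate, divided by the median of negative controls and log2-transformed. Hits were wells at least three median absolute deviations from the median of all screened wells.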

[1] = 0.25 µM, library screen: screen1, EWS-FLI1 expression: high (no doxycycline)
[2] = 0.25 µM, library screen: screen1, EWS-FLI1 expression: low (doxycycline-induced shRNA knockdown)
[3] = 2.5 µM, library screen: screen1, EWS-FLI1 expression: high (no doxycycline)
[4] = 2.5 µM, library screen: screen1, EWS-FLI1 expression: low (doxycycline-induced shRNA knockdown)
[5] = 0.103 µM, library screen: screen3, EWS-FLI1 expression: high (no doxycycline)
[6] = 0.103 µM, library screen: screen3, EWS-FLI1 expression: low (doxycycline-induced shRNA knockdown)
[7] = 0.308 µM, library screen: screen3, EWS-FLI1 expression: high (no doxycycline)
[8] = 0.308 µM, library screen: screen3, EWS-FLI1 expression: low (doxycycline-induced shRNA knockdown)
[9] = 0.926 µM, library screen: screen3, EWS-FLI1 expression: high (no doxycycline)
[10] = 0.926 µM, library screen: screen3, EWS-FLI1 expression: low (doxycycline-induced shRNA knockdown)
[11] = 2.8 µM, library screen: screen3, EWS-FLI1 expression: high (no doxycycline)
[12] = 2.8 µM, library screen: screen3, EWS-FLI1 expression: low (doxycycline-induced shRNA knockdown)
[13] = 8.3 µM, library screen: screen3, EWS-FLI1 expression: high (no doxycycline)
[14] = 8.3 µM, library screen: screen3, EWS-FLI1 expression: low (doxycycline-induced shRNA knockdown)
[15] = 25 µM, library screen: screen3, EWS-FLI1 expression: high (no doxycycline)
[16] = 25 µM, library screen: screen3, EWS-FLI1 expression: low (doxycycline-induced shRNA knockdown)
[17] = 0.25 µM, library screen: screen2, EWS-FLI1 expression: high (no doxycycline)
[18] = 0.25 µM, library screen: screen2, EWS-FLI1 expression: low (doxycycline-induced shRNA knockdown)
[19] = 2.5 µM, library screen: screen2, EWS-FLI1 expression: high (no doxycycline)
[20] = 2.5 µM, library screen: screen2, EWS-FLI1 expression: low (doxycycline-induced shRNA knockdown)

Measured: cell viability (log2)

C[C@@H]1C[C@H]2[C@@H]3C[C@H](F)C4=CC(=O)C=C[C@]4(C)[C@@]3(F)[C@@H](O)C[C@]2(C)[C@H]1C(=O)COC(=O)C(C)(C)C
inactive: [1] 0.00935 | [2] -0.0577 | [3] 0.0831 | [4] -0.0529

O=C(O)/C=C/c1ccc(Cn2ccnc2)cc1
inactive: [5] -0.0376 | [6] -0.0446 | [7] 0.0658 | [8] 0.00819 | [9] -0.0199 | [10] 0.0462 | [11] 0.0246 | [12] 0.0247 | [13] -0.0228 | [14] 0.0719 | [15] 0.0138 | [16] 0.0675

COc1cc2nccc(Oc3ccc(NC(=O)C4(C(=O)Nc5ccc(F)cc5)CC4)cc3)c2cc1OC
inactive: [5] -0.0307 | [6] 0.0963 | [7] -0.00958 | [8] -0.0156 | [9] 0.0226 | [10] 0.0982 | [11] 0.0312 | [12] -0.00706 | [13] -0.0381 | [14] 0.0419 | [15] -0.135 | [16] 0.0518

COC(=O)C[C@H]1C(C)(C)C(=O)[C@@H]2CC3=C4CC(OC)O[C@@H](c5ccoc5)[C@]4(C)CCC3[C@@]1(C)C2=O (stereo partly specified)
inactive: [1] 0.115 | [2] 0.14 | [3] 0.0882 | [4] 0.172

CN1CCN(c2nc3cc(C(F)(F)F)ccc3n3cccc23)CC1
inactive: [17] 0.138 | [18] -0.0123 | [19] 0.117 | [20] 0.12

C[C@@H]1O[C@@H](O[C@H]2[C@H](O[C@H]3CC[C@@]4(C)[C@@H](CC[C@]5(C)[C@@H]4CC=C4[C@@H]6CC(C)(C)CC[C@]6(C(=O)O[C@@H]6O[C@H](CO[C@@H]7O[C@H](CO)[C@@H](O[C@@H]8O[C@@H](C)[C@H](O)[C@@H](O)[C@H]8O)[C@H](O)[C@H]7O)[C@@H](O)[C@H](O)[C@H]6O)CC[C@]45C)[C@]3(C)CO)OC[C@H](O)[C@@H]2O)[C@H](O)[C@H](O)[C@H]1O
inactive: [1] 0.0348 | [2] 0.044 | [3] 0.139 | [4] 0.126

CCC1=C(C)CN(C(=O)NCCc2ccc(S(=O)(=O)NC(=O)NC3CCC(C)CC3)cc2)C1=O (stereo unspecified)
inactive: [5] 0.065 | [6] 0.0619 | [7] -0.018 | [8] 0.0454 | [9] -0.0554 | [10] -0.00949 | [11] 0.0264 | [12] -0.0201 | [13] -0.0146 | [14] -0.0784
active: [15] -0.481 | [16] -0.408

CCOC(=O)CCCCCCCCCCCCC1C=CCC1 (stereo unspecified)
inactive: [1] 0.0735 | [2] 0.0764 | [3] 0.201 | [4] 0.124

CCn1nc(C(=O)O)c(=O)c2cc3c(cc21)OCO3
inactive: [1] 0.0624 | [2] 0.132 | [17] 0.127 | [18] 0.109 | [3] 0.197 | [4] 0.0394 | [19] 0.119 | [20] 0.118

Cc1cc(/C=C/c2ccc3cc(N(C)C)ccc3[n+]2C)c(C)n1-c1ccccc1
inactive: [1] 0.0226 | [2] 0.0827 | [3] -0.0806 | [4] 0.102

COc1ccccc1/C=C1\SC(=S)N(C2CCS(=O)(=O)C2)C1=O (stereo unspecified)
inactive: [1] 0.0633 | [2] 0.0907 | [3] 0.0733 | [4] 0.0539

COCCOC(=O)C1=C(C)NC(C)=C(C(=O)OC/C=C/c2ccccc2)C1c1cccc([N+](=O)[O-])c1 (stereo unspecified)
inactive: [5] 0.108 | [6] 0.0834 | [7] 0.129 | [8] 0.0492 | [9] 0.0684 | [10] 0.0642 | [11] 0.157 | [12] 0.0317 | [13] 0.0951 | [14] 0.0494 | [15] 0.0841 | [16] -0.00603

Cc1cnc(NC(=O)C2=C(O)c3ccccc3S(=O)(=O)N2C)s1
inactive: [17] 0.16 | [18] 0.0995 | [19] 0.124 | [20] 0.125

O=C(O)CCCc1ccccc1
inactive: [1] 0.0233 | [2] 0.0277 | [3] 0.116 | [4] 0.0391

NC1=NCCN1CC(=O)O
inactive: [1] 0.117 | [2] 0.0775 | [3] 0.147 | [4] 0.164

CCOC(=O)c1c[nH]c2ccc(OC)cc2c1=O
inactive: [1] 0.15 | [2] 0.1 | [3] 0.112 | [4] 0.121

CC1(C)O[C@@H]2C[C@H]3[C@@H]4CCC5=CC(=O)C=C[C@]5(C)[C@@]4(F)[C@@H](O)C[C@]3(C)[C@]2(C(=O)CO)O1
inactive: [5] 0.0656 | [6] 0.104 | [1] 0.0257 | [2] -0.0565 | [7] 0.0762 | [8] 0.111 | [9] 0.162 | [10] 0.122 | [3] 0.09 | [4] -0.0295 | [11] 0.14 | [12] -0.00422 | [13] 0.119 | [14] 0.168 | [15] 0.259 | [16] 0.177
